# According to PubChem BioAssay AID686970 (National Center for Advancing Translational Sciences (NCATS), 2013):
# Hit rate of the full screen: of about 360,000 compounds, about 6,000 (1.7%) were called active. This list was built around the results that the source calls inconclusive (neither active nor inactive); the mix of calls is not that of the screen. Calls come from the whole dose curve; as a rule, active = well fitted cell-killing curve with a large enough effect; inconclusive = small, poorly fitted or top-dose-only effect, or effect the other way; inactive = flat fitted curve, though single readings scatter. No potency is given beside an inconclusive call; the fits are too rough.
# Assay: qHTS for induction of synthetic lethality in tumor cells producing 2HG: qHTS for the HT-1080-NT fibrosarcoma cell line;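 note: NT is the 2HG producing partner of a matched IDH1 knockdown line; nearly all actives have a fitted effect of over 55% in size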;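 for activity, negative = less viability: 0% = DMSO-treated cells and -100% = media-only wells without cells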
# Conditions: HT-1080-NT fibrosarcoma viability, CellTiter-Glo ATP luminescence, 48 h; activity, negative = less viability: at 46.1 µM (top of the series) unless noted
# Summary of the method: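 Compounds were tested in concentration-response format on HT-1080-NT cells for 48 hours at 37 degrees C. Cell viability came from CellTiter-Glo luminescence; curves were classified by r2, response magnitude and activity.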
# Potency is the fitted concentration of half-maximal effect; tags give direction and shape of the fitted curve.
SMILES,Potency,"activity, negative = less viability"
O=C(NCCc1cccnc1)c1cc(COc2ccc(F)cc2Cl)on1,"inconclusive [cytotoxic, single point]",
Cc1oc(C(C)(C)C)cc1-c1cc(NC(=O)c2ccc([N+](=O)[O-])cc2)n[nH]1,"inconclusive [cytotoxic, partial curve]",
COc1cc2c(cc1OC)CN(CC(=O)Nc1ccc(F)cc1)C(C(=O)O)C2 (stereo not drawn),,inactive: 5.25%
CN(C)S(=O)(=O)c1cc(NC(=O)CNCCN2CCOCC2)ccc1Cl,"inconclusive [rising, single point]",
COc1cc(/C=C/c2nc3ccccc3c(=O)[nH]2)cc(OC)c1OC,"inconclusive [cytotoxic, full curve]",
COC(=O)Cc1c(C)[nH]n(-c2cc(Cl)cc(Cl)c2)c1=O,"inconclusive [cytotoxic, partial curve]",
O=c1c2c([N+](=O)[O-])cc([N+](=O)[O-])cc2sn1Cc1ccccc1,"inconclusive [cytotoxic, single point]",
C[C@H](CO)N1C[C@H](C)[C@@H](CN(C)Cc2ccc(Oc3ccccc3)cc2)Oc2cc(Br)ccc2S1(=O)=O,"inconclusive [cytotoxic, single point]",
O=C(NCc1cccnc1)C(=O)Nc1nc(-c2ccccc2)cs1,"inconclusive [cytotoxic, partial curve]",
N#CC1=C(N)Oc2ccc3ccc(O)cc3c2C1c1ccsc1 (stereo not drawn),"inconclusive [cytotoxic, single point]",
CCOC(=O)[C@]12CCCC=C1N(Cc1ccccc1)C(=O)[C@H](CC(=O)N1CCC(c3ccccc3)CC1)C2,"inconclusive [cytotoxic, single point]",
CCOCCC(=O)Nc1ccc2c(c1)c(=O)n(C)n2CC=C(C)C,"inconclusive [cytotoxic, full curve]",
COc1cc(/C=N/NC(=O)C(=O)NCC2CCCO2)cc(Cl)c1O (stereo not drawn),,inactive: -0.434%
COc1ccc(OC)c(C(=O)/C=C/c2cccnc2)c1,active: 20.6 µM,
CCOc1cc(CNCC(O)c2ccccc2)cc(Cl)c1OC (stereo not drawn),,inactive: 0.784%
C#Cc1cccc(Nc2nc(NCc3ccccc3OC)nc3ccsc23)c1,active: 20.6 µM,
COc1ccc(S(=O)(=O)N/N=C\c2ccc(OC)c(COc3ccc(C)cc3[N+](=O)[O-])c2)cc1,"inconclusive [cytotoxic, partial curve]",
COc1cc2cc(C)nc(Cc3cccc4ccccc34)c2cc1OC,"inconclusive [cytotoxic, single point]",
CCOc1ccc(N2C(=O)Nc3ccccc3C2(O)C(=O)NCc2ccc(OC)cc2)cc1 (stereo not drawn),"inconclusive [rising, single point]",
c1cc(CN2CCCCC2)cc(OCCCNc2nc3ccccc3s2)c1,"inconclusive [cytotoxic, single point]",
COc1ccc(/C=C/C(=O)c2ccc([N+](=O)[O-])o2)cc1OC,"inconclusive [cytotoxic, full curve]",
Cc1c(C(=O)NCc2ccccc2)sc(=O)n1Cc1ccccc1F,,inactive: 2.54%
CCC(C)NS(=O)(=O)c1ccc(OC)c(Cl)c1Cl (stereo not drawn),,inactive: -3.39%
COc1cc(NC(=O)C2C3CCC(O3)C2C(=O)O)cc(OC)c1 (stereo not drawn),"inconclusive [cytotoxic, single point]",

SMILES,Potency,"activity, negative = less viability"
CN(CC(=O)O)Cc1nc2ccccc2[nH]1,,inactive: 1.12%
CN1CCc2nc3ccc(Cl)cc3c(-c3ccccc3Cl)c2C1,,inactive: -23.3%
NC1=NC(=Nc2ccc(Br)cc2)c2ccccc21,active: 23.1 µM,
CC1=C(C(=O)N(C(C)C)C(C)C)CC(CC(=O)NCc2ccco2)C(=O)N1CCC1=CCCCC1 (stereo not drawn),,inactive: 16.1%
O=P(O)(O)c1ccccc1OCCCCCOc1ccccc1P(=O)(O)O,,inconclusive: -34% [cytotoxic]
Cn1c(SCC(=O)O)nc2sc3c(c2c1=O)CCC3,,inactive: -5.25%
CCn1c2ccccc2c2nnc(SCC(N)=O)nc21,"inconclusive [cytotoxic, single point]",
O=C(Cn1ncc(Cl)c(Cl)c1=O)NCC1CCCCC1,"inconclusive [cytotoxic, single point]",
CCCN(Cc1nc2cc(Cl)ccc2c(=O)[nH]1)C(=O)c1ccc(S(=O)(=O)N2CCCC2)cc1,,inactive: -16.3%
Cc1ccc(NC(=O)COC(=O)Cc2ccsc2)c(C)c1,,inactive: 0.0874%
CCOC(=O)N1CCc2c(sc3c2C(=O)NC(c2ccccc2)N3)C1 (stereo not drawn),"inconclusive [cytotoxic, partial curve]",
O=C(c1[nH]c(C(F)(F)F)nc1-c1ccccc1)N1CCN(c2ncccc2C(F)(F)F)CC1,"inconclusive [cytotoxic, single point]",
NC(=O)c1ccc(NC(=O)COC(=O)c2cc3c(s2)CCC3)cc1,,inactive: 4.56%
COCc1nnc(NC(=O)c2ccc(S(=O)(=O)N(C)c3ccccc3)cc2)o1,,inactive: -7.56%
O=C(Nc1ccc(N2CCCC2)cc1)c1cccc(F)c1,,inactive: -9.77%
CC(C)Oc1ccc(C(=O)Nc2ccc(N(C)C)cc2)cc1,"inconclusive [cytotoxic, single point]",
O=C(Nc1c(-c2ccccc2)nc2ncccn12)c1cc2ccccc2oc1=O,,inactive: 3.54%
CNc1cncc(-c2cccnc2)n1,"inconclusive [rising, single point]",
Fc1ccc(COc2ccccc2CNCc2ccncc2)cc1,,inactive: 0.0504%
N#CC1(NC(=O)Cn2ncc(Cl)c(Cl)c2=O)CCCCC1,active: 5.8 µM,
CC1=NN(c2ccccc2)C(=O)C1c1ccccc1 (stereo not drawn),,inactive: -4.77%
Cc1csc(=Nc2cccnc2)n1Cc1ccco1,"inconclusive [cytotoxic, partial curve]",
CS(=O)(=O)N1CCN(c2ccc(NC(=O)c3ccc([N+](=O)[O-])o3)cc2)CC1,"inconclusive [cytotoxic, partial curve]",
Nc1[nH]c(C(=O)c2ccccc2)c(-c2ccccc2C(F)(F)F)c1C(=O)NCc1ccc(F)cc1,"inconclusive [rising, partial curve, poor fit]",
